Results: PubChem BioAssay AID540317 (National Center for Advancing Translational Sciences (NCATS), 2011)
In all, about 390,000 compounds went through this assay and about 2,200 (0.56%) were called active. The inconclusive results got no clear call from the source; some entries with a clear call stand among them for comparison. The call rests on the fitted dose curve; in most records, active means well fitted inhibition curve with a large enough effect; inconclusive means small, poorly fitted or top-dose-only effect; inactive means no such curve, though single readings can be large or run the other way. A potency beside an inconclusive call is a rough fit, not a confirmed value.

target: Chromobox protein homolog 1 (Homo sapiens) (UniProt P83916); test: HTS for Inhibitors of HP1-beta Chromodomain Interactions with Methylated Histone Tails; details: AlphaScreen HP1-beta / biotin-H3K9me3 peptide binding; series mostly up to 114 µM; further: nearly all actives have a fitted effect of over 70% in size
Outline: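 AlphaScreen: HP1-beta (50 nM) preformed 30 min with biotin-H3(1-18)K9me3 peptide (50 nM) in PBS pH 7.4, 0.01% Tween-20. Compound added for 30 min at RT, then streptavidin donor/nickel chelate acceptor beads (10 ug/mL) for 30 min.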
Potency means the concentration at half of the fitted maximal effect; tags describe the fitted curve by direction and shape.

Chain of UniProt P83916 (P83916 whole entry, looked up): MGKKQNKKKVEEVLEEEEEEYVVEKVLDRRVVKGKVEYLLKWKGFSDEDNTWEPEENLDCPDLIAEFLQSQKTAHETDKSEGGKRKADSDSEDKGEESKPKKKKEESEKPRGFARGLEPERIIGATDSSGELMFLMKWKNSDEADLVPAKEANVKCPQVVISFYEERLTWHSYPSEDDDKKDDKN

SMILES | Potency
O=C(NC1CC1)c1cc(-c2ccco2)nc2ccccc12 | active: 17.8 µM
CCN(CC)c1ccc(NS(=O)(=O)c2ccc(-c3coc(C)n3)cc2)c(C)c1 | inconclusive: 15.8 µM [inhibitor, partial curve]
CCn1nc(C(=O)Nc2ccccc2N2CCCC2)c2ccccc2c1=O | inconclusive: 39.8 µM [inhibitor, partial curve]
CCC(C)c1ccc(NC(=S)Nc2ccc(OC)c(OC)c2)cc1 (centres undefined) | inconclusive: 35.5 µM [inhibitor, full curve]
CCCCc1nc(S(=O)(=O)c2ccc(Cl)cc2)c(N2CCOCC2)o1 | inconclusive: 70.8 µM [inhibitor, single point]
O=C(N/N=C/c1cc([N+](=O)[O-])ccc1O)c1ccc(COc2ccc3c(c2)CCC3)o1 | inconclusive: 15.8 µM [inhibitor, full curve]
COc1cc(OC)c2c(-c3ccccc3)cc(=O)oc2c1C(CC(=O)N1CCCC1)c1ccc(N(C)C)cc1 (centres undefined) | inconclusive: 22.4 µM [inhibitor, full curve, poor fit]
O=C(CCn1c2c(c3ccccc31)CCCC2)NNC(=O)c1ccccc1C(=O)O | inactive
c1ccc2sc(N3CCN(Cc4nnnn4CC4CCCO4)CC3)nc2c1 (centres undefined) | inactive
O=[N+]([O-])c1ccc(Cl)c(C2Nc3cccc4cccc(c34)N2)c1 | inconclusive: 22.4 µM [inhibitor, full curve]
O=C(NNC(=O)C12CC3CC(CC(C3)C1)C2)c1csc(N2CCOCC2)n1 | inactive
Cc1ccc(NC(=S)c2nc3ccccc3[nH]2)c(C)c1 | inconclusive: 12.6 µM [inhibitor, full curve]
Cc1ccc(-c2nnn(CC(=O)Nc3nnc(C(C)C)s3)n2)cc1 | inactive
Cc1ccc2c(c1)c1c3n2CCCN(Cc2ccccc2)C3CCC1 (centres undefined) | inconclusive: 15.8 µM [inhibitor, full curve]
O=C(Nc1cc(S(=O)(=O)N2CCOCC2)ccc1N1CCCCC1)c1ccccc1Br | inconclusive: 7.08 µM [inhibitor, full curve]
Nc1cc(C(=O)OCC(=O)NCCNC(=O)COC(=O)c2ccc(Cl)c(N)c2)ccc1Cl | inactive
Cc1cc(OCC(=O)Nc2cc(-c3nn4c(C)nnc4s3)ccc2C)ccc1Cl | inactive
COc1ccc(N2CCC(CNC(=S)Nc3cccc(C)c3)C2)cc1 (centres undefined) | inconclusive: 25.1 µM [inhibitor, full curve, poor fit]
Cc1ccc(NC(=S)NCCc2ccccc2)c(C)c1 | inconclusive: 39.8 µM [inhibitor, single point]
